PubChem BioAssay AID1508642 (National Center for Advancing Translational Sciences (NCATS), 2021)
About 200 (0.47%) of roughly 43,000 compounds were called active. Roughly 12% stayed inconclusive and do not appear here. Calls follow the shape of the dose curve; as a rule, active = well fitted cell-killing curve with a large enough effect; inconclusive = small, poorly fitted or top-dose-only effect, or effect the other way; inactive = flat fitted curve, though single readings scatter. The list shows a part of the results.
% is scaled to controls: 0 for no effect and ±100 for the full control effect.

Experiment: Cell viability qHTS assay in S16 Pmp22-F2sN cells; also: nearly all actives have a fitted effect of over 65% in size
Conditions: S16 Pmp22-F2sN Schwann cells (luciferase reporters placed in the Pmp22 gene) viability, CellTiter-Glo, 24 h; series mostly up to 57.5 µM; activity change, negative = cytotoxicity: at the top concentration
Summary of the method: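 CellTiter-Glo counter-screen, qHTS, 1536-well. Cells: S16(c9) Pmp22-F2sN, 500-1,000/well in DMEM + 10% FBS. Cpd 23 nL pin transfer, 24 h, 37C/5% CO2. Read: luminescence, CCD imager.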
In the case of CCOC(=O)N1CCc2c(sc3c2c(=O)n(CCc2ccccc2)c(=O)n3Cc2cc(C)ccc2C)C1, the “activity change, negative = cytotoxicity” value is reported as inactive: 10.3%. In the case of COCCNC(=O)Cn1cc(S(=O)(=O)Cc2ccccc2Cl)c2ccccc21, the “activity change, negative = cytotoxicity” value is reported as inactive: 6.15%. In the case of Cc1ccc(-c2nnc(Nc3ccc(Br)cc3)c3ccccc23)cc1S(=O)(=O)N1CCOCC1, the “activity change, negative = cytotoxicity” value is reported as inactive: 15%. With COc1ccc(-n2c(=O)c3sc4ccccc4c3n(CC(=O)Nc3cccc(C)c3)c2=O)cc1 the “activity change, negative = cytotoxicity” value was inactive: 2.2%. With CCN(CC)S(=O)(=O)c1ccc2c(c1)N(CC(=O)NCCc1ccc(OC)c(OC)c1)C(=O)CO2 the “activity change, negative = cytotoxicity” value was inactive: -3.01%. With CCOc1ccccc1NC(=O)c1cn(C2CCCC2)c(=O)c2c1c1ccccc1n2C the “activity change, negative = cytotoxicity” value was inactive: 7.27%. In the case of COc1ccccc1NC(=O)C1=C(C)Nc2nc(SCc3ccccc3)nn2C1c1ccccn1 (stereo not given), the “activity change, negative = cytotoxicity” value is reported as inactive: 16.7%. With Brc1ccccc1-n1ncc2c1ncn1nc(Cc3ccccc3)nc21 the “activity change, negative = cytotoxicity” value was inactive: 9.09%. With Cc1ccc2c(c1)N(C(=O)CCC(=O)Nc1ccccc1Cl)CC(C)O2 (stereo not given) the “activity change, negative = cytotoxicity” value was inactive: -7.37%. For O=c1cc(CSc2ncn[nH]2)[nH]c2c(Cl)cccc12, the “activity change, negative = cytotoxicity” value was inactive: 14.7%. With CCN(CC)c1ccc(C(=O)NCc2ccc3c(c2)CCN3C(=O)c2ccccc2)cc1 the “activity change, negative = cytotoxicity” value was inactive: -0.353%. With CC1CCCN(C(=O)Cn2c(=O)oc3cc(S(=O)(=O)N4CCCCC4)ccc32)C1 (stereo not given) the “activity change, negative = cytotoxicity” value was inactive: -15.5%. For O=C(CSc1nnc(NC(=O)NC2CCCCC2)s1)Nc1ccccc1F, the “activity change, negative = cytotoxicity” value was inactive: 10.3%. For CCOC(=O)c1c(C)[nH]c(C)c1S(=O)(=O)NCC(=O)Nc1cccc(C(F)(F)F)c1, the “activity change, negative = cytotoxicity” value was inactive: -17.5%. For Cc1oc2c(c1C(=O)NCc1cccc(Br)c1)C1=NCCN1C=N2, the “activity change, negative = cytotoxicity” value was inactive: 2.6%. In the case of Cc1ccc(CNC(=O)CCCn2c(=O)c3ccccc3n(CC(=O)C(C)(C)C)c2=O)cc1, the “activity change, negative = cytotoxicity” value is reported as inactive: 9.57%. With CCOC(=O)Cn1c(=O)n(CC2CCCO2)c2nc(-c3ccc(OC)cc3OC)nc(C(N)=O)c21 (stereo not given) the “activity change, negative = cytotoxicity” value was inactive: 9.03%. For Cc1cccc(NC(=O)NCCn2c(=O)oc3ccc(C)cc32)c1, the “activity change, negative = cytotoxicity” value was inactive: -6.04%. In the case of Cc1ccc(C)c(N2CCN(C(=O)c3cnc4c(-c5ccccc5)c(C)nn4c3C)CC2)c1, the “activity change, negative = cytotoxicity” value is reported as inactive: -0.492%. With Cc1ccc(/C=C(\C#N)C(=O)Nc2cc(C)ccc2C)cc1 the “activity change, negative = cytotoxicity” value was inactive: 10.5%. In the case of COc1cccc(CNC(=O)CN2C(=O)N(c3cc(C)ccc3C)S(=O)(=O)c3ccccc32)c1OC, the “activity change, negative = cytotoxicity” value is reported as inactive: 0.731%. For Cc1ccc(C)c(CN2C(=O)c3ccccc3S(=O)c3ccc(C(=O)NCc4ccccc4Cl)cc32)c1 (stereo not given), the “activity change, negative = cytotoxicity” value was inactive: 5.03%. For COc1ccc(CNC(=O)CN(c2ccc(C)cc2)S(=O)(=O)c2c(C)n[nH]c2C)cc1, the “activity change, negative = cytotoxicity” value was inactive: 13%. In the case of COc1ccc2oc(=O)c(-c3csc(/C(C#N)=C/c4ccc(F)cc4)n3)cc2c1, the “activity change, negative = cytotoxicity” value is reported as inactive: 8.15%. With COc1ccccc1N1CCN(C(=O)C2CCN(S(=O)(=O)c3cnc[nH]3)CC2)CC1 the “activity change, negative = cytotoxicity” value was inactive: 14%.
